# Measurements reported in the supplement of paper PMC12217912.
# The list shows a part of the results. Sequences were assembled here from the parent chain. Values near 0.05 are background.
# B1: TEV protease; numbered along this chain (parent)
# chain: MGESLFKGPRDYNPISSSICHLTNESDGHTTSLYGIGFGPFIITNKHLFRRNNGTLVVQSLHGVFKVKDTTTLQQHLVDGRDMIIIRMPKDFPPFPQKLKFREPQREERICLVTTNFQTKSMSSMVSDTSCTFPSGDGIFWKHWIQTKDGQCGSPLVSTRDGFIVGIHSASNFTNTNNYFTSVPKNFMELLTNQEAQQWVSGWRLNADSVLWGGHKVFMVKPEEPFQPVKEATQL
# Variants of: B1
# Assay: raw area under fraction-flipped curve 0-4 h after induction (AUC4h, not background-subtracted), DNA-recorder readout of cleavage of the substrate (dimensionless); higher = more cleavage of the substrate by the protease variant
# Details: temperature: 34 °C; time window: 0-4 h after rhamnose induction
# Description: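 In vivo DNA recorder in E. coli TOP10(DE3) ΔrhaA at 34 °C. Each TEVp single-site mutant (parent TEVp 0) is paired with a single-site variant of the 7-mer TEVs (canonical ENLYFQ|S). The substrate sits between flexible linkers in a Bxb1-sfGFP-TEVs-SsrA fusion, so cleavage stabilises Bxb1 and speeds flipping of a recombination array, read by NGS. The value is the raw area under the fraction-flipped curve over 0-4 h after rhamnose induction (AUC4h), with ≥20 reads per time point. It is not background-subtracted; inactive controls average about 0.047.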
# 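Further: Bxb1 expression induced with 0.2% (w/v) L-rhamnose at OD600 near 0.5, cultures sampled hourly, flipped fraction per protease–substrate barcode pair counted by paired-end Illumina sequencing.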
Variant,area with substrate ENLYFCS,area with substrate ENLYFDS,area with substrate ENLYFES,area with substrate ENLYFFS,area with substrate ENLYFHS,area with substrate ENLYFIS,area with substrate ENLYFKS,area with substrate ENLYFLS,area with substrate ENLYFMS,area with substrate ENLYFNS,area with substrate ENLYFPS,area with substrate ENLYFRS,area with substrate ENLYFSS,area with substrate ENLYFTS,area with substrate ENLYFVS,area with substrate ENLYFWS,area with substrate ENLYFYS,area with substrate ENLYFAS,area with substrate ENLYFGS
F41M,0.0628,0.0563,0.0651,0.0723,0.0516,0.0517,0.0508,0.0522,0.0525,0.0627,0.066,0.0645,0.0553,0.0597,0.0729,0.0458,0.0596,,
F38S,0.0618,0.0396,0.0608,0.0626,0.056,0.0466,,,0.0612,,0.0573,0.0474,0.0547,0.043,,0.0402,0.0563,,
Q234P,,,0.0572,0.0827,0.061,0.0519,0.0628,,0.0781,0.0644,0.0567,0.067,,0.0552,0.0546,,,0.0586,0.057
Q234E,0.0296,0.0579,0.0733,,0.0685,0.0644,,0.0523,0.0613,0.0577,0.0498,,,0.0608,0.0775,0.0633,,0.0588,
P225Y,,0.0532,0.0758,0.0846,0.0477,0.0589,0.047,0.0648,0.0684,0.0477,0.0645,,0.052,0.0591,0.063,,0.0384,0.0488,0.05
C20I,0.062,0.0595,0.0313,0.0778,,0.0519,,0.0561,0.0634,0.0742,0.0582,0.0758,,,,0.0442,0.0724,,0.0488
D27I,0.059,,0.0468,0.0757,0.0607,0.0548,0.0578,,0.0628,,0.0576,,0.0541,0.0679,0.0598,,0.0569,,0.0584
Q75Y,0.0416,0.0581,0.0538,0.0726,0.0631,0.054,0.0617,,0.0671,0.0609,0.0613,,0.0504,0.0603,0.0857,0.0088,,,
Q75S,0.0511,,,,0.0477,0.0721,0.0447,,,,0.0587,,0.068,,0.0482,0.0556,,,0.0649
Q75G,0.0337,,0.0669,,,0.0591,0.0633,,0.0663,0.0605,0.0597,,0.0617,0.0551,,0.0531,,,
T233F,0.0467,,0.0621,0.0813,0.0381,0.0614,,0.0765,0.109,0.0434,0.0648,0.0477,,0.0431,0.0566,,,0.0432,
T233I,0.0687,,,,0.0754,0.0494,,0.0717,,0.0761,,,,0.0617,0.0464,,,0.0597,0.0329
T233A,,,,0.0436,,0.0512,0.0413,0.0392,0.0759,0.0403,,,0.0643,,,,,0.0236,
R51D,0.0495,0.0401,0.0707,0.0761,,0.0635,,0.0496,,,0.0586,,,,0.0501,0.0556,,,
Q59W,0.0704,,0.0645,,,0.0571,0.0602,0.0744,0.0576,0.0601,0.0718,,,0.0671,,0.0694,0.0679,,0.0878
P14F,0.0539,0.0686,0.0709,0.0671,0.0473,0.0522,0.0553,0.0616,0.0749,0.0601,0.0673,,0.0549,0.0594,0.062,,0.0485,,
K216E,0.0652,,0.0705,,,0.0511,,0.076,,0.0819,,,,,,0.0369,0.0368,0.064,
L73M,0.0409,,0.0504,,0.0714,0.0467,0.067,,0.0615,0.0664,0.0604,0.0395,0.0591,,0.0917,0.0467,,,
L73A,0.0557,0.0428,,,0.0513,,,,,,0.0472,0.059,0.0613,0.0552,,,0.0519,,
L235W,0.0605,,,0.075,,0.0466,0.0542,,0.0702,0.0478,0.0438,0.063,0.0577,0.0531,0.0686,0.058,0.0693,0.0625,
V229W,0.0394,0.0543,0.0672,0.0667,,0.0561,0.0614,0.0687,0.0719,0.0618,0.0518,0.0658,,0.0563,0.0511,0.0586,0.0688,0.0637,0.0506
V229N,0.0632,,,0.0861,,0.0508,0.0691,,0.0767,,0.0566,0.0524,0.0695,0.0576,0.0615,,0.0413,0.072,0.0577
L61I,0.0581,0.0792,0.0663,0.0697,0.0725,0.0536,,,0.0731,,,,,,,0.0557,,,
D69V,0.0668,,0.0464,0.0611,,0.053,0.0537,,0.0543,0.0633,0.0708,0.0505,,0.0562,0.0594,0.0514,,,
K7R,0.0566,,,,,0.0663,0.0674,,0.0714,,0.0649,,,0.0508,,0.0608,,,
K7T,0.0667,,,0.0643,,0.0551,0.0636,0.0451,0.0659,0.0498,0.0566,,0.0399,,,,0.0546,,
F226L,0.0469,,0.0625,0.0604,0.0368,0.0679,,0.0659,0.0774,,0.0679,0.0319,0.0583,0.0644,0.0627,,,0.0583,
G63P,0.0433,,0.0447,0.0664,,0.0482,0.0509,,0.049,,0.0502,,,,0.0785,0.0441,0.0423,,0.0727
R50A,0.0543,0.0741,0.0715,0.0674,0.0626,0.0625,0.076,0.0599,0.0536,0.0664,0.0643,0.0616,0.0647,0.0675,0.0591,0.0559,,,0.0692
